# About 2,200 (0.71%) of roughly 310,000 compounds showed an effect of 50% or more. Effects have a minus sign here. The list shows a part of the results.
# Molecular target: human ether-à-go-go-related gene (hERG) potassium channel (human, UniProt Q12809)
# Test: primary screen, population patch clamp on CHO cells stably expressing hERG
# Chain of human ether-à-go-go-related gene (hERG) potassium channel (Q12809 whole entry, looked up): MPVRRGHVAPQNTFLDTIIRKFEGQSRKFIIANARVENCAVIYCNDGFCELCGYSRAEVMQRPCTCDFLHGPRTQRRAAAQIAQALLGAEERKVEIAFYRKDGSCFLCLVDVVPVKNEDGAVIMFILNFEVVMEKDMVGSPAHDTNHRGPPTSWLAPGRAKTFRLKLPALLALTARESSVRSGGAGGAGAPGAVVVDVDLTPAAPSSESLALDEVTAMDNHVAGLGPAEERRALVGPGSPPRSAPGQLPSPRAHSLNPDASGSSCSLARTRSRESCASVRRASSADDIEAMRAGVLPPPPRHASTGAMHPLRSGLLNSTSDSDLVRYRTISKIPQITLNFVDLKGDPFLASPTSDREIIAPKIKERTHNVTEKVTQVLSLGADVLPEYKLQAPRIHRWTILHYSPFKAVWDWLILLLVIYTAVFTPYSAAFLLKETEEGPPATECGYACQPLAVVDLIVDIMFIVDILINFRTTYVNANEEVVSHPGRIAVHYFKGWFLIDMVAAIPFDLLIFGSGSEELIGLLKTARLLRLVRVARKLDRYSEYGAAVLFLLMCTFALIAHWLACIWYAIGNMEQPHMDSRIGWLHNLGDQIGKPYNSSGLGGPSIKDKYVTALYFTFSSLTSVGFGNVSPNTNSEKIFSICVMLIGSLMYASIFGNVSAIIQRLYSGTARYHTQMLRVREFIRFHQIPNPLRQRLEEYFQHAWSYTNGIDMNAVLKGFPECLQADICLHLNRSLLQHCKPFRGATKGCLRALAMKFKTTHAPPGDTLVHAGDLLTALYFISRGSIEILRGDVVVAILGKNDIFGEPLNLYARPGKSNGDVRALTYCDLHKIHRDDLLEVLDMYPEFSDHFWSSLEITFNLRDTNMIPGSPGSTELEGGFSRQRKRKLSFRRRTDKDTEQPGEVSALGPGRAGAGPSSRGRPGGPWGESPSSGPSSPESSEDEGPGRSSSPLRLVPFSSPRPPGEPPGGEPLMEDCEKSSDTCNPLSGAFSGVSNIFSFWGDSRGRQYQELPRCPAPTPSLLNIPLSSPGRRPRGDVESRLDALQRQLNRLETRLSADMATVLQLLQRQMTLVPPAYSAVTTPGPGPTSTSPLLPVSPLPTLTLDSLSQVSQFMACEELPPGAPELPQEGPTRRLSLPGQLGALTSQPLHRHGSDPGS
row,Compound,"hERG current change (%, negative = inhibition) at 1uM [%]"
1,Cc1c([N+](=O)[O-])c(C(=O)Nc2ccc3c(c2)OCCO3)nn1C,14.7
2,CN(C)S(=O)(=O)N1CCC(Oc2ccc(C(=O)NCc3cnn(C)c3)cc2)CC1,15.7
3,COc1ccc(CN2CC[C@H]3C=CC[C@@H](C(=O)Nc4ccc(Cl)c(C(F)(F)F)c4)[C@H]3C2=O)cc1OC,3.9
4,CCN(CC)CCCNC(=O)C1CCN(c2ncnc3c2sc2cccc(F)c23)CC1,-8.82
5,CC(c1ccccc1)(c1ccccc1)c1ccncc1,8.99
6,CC1C=CCC2C(=O)N(c3ccc(Cl)cc3O)C(=O)C12 (stereo not drawn),-0.941
7,CNC(=O)c1ccc(-c2sc3nc(N4CCOCC4)c4c(c3c2N)CC(C)(C)OC4)o1,11
8,O=C(NCC(c1ccc(F)cc1)N1CCOCC1)c1c(F)cccc1F (stereo not drawn),10.7
9,COc1cc(/C=N/n2c(C)n[nH]c2=S)ccc1OCc1ccc(F)cc1,2.53
10,CCOCCCNC(=O)C(NC(=O)c1ccc(NC(C)=O)cc1)c1ccc(OC)cc1 (stereo not drawn),2.72
11,CCCCN1CNC(=S)N(c2ccc(C(=O)OCC)cc2)C1,10.3
12,COCCCNC(=S)N/N=C/c1ccc2ccccc2c1,7.25
13,CCOc1ccc(C(=O)NCC(=O)OCC(=O)Nc2ccccc2OCC)cc1,9.86
14,Cc1cc(OCC(=O)NCc2ccccn2)c2c(C)c(Cc3ccccc3)c(=O)oc2c1,8.53
15,O=C1CC(=O)C(n2cncn2)C(c2ccc(Cl)cc2Cl)C1 (stereo not drawn),12.3
16,O=C(Cn1c(=O)c2c3c(sc2n(Cc2ccccc2)c1=O)CCCC3)NCCO,13.8
17,CC(=O)Nc1ccc(NC(=O)CSc2nnc(-c3cccs3)n2N)cc1,7.75
18,CC1=C(C(=O)OC2CCC(C)CC2)C(c2ccc(O)c([N+](=O)[O-])c2)NC(=O)N1 (stereo not drawn),11.4
19,Nc1cc(N)cc(-c2nc3ccccc3o2)c1,12.7
20,Cc1cc(/C=C(\C#N)C(=O)N2CCCCC2)cc(C)c1O,4.54
21,c1ccc2oc(-c3ccc4nc[nH]c4c3)nc2c1,10.9
22,CC(C)(C)C(=O)Nc1ccc(C(=O)NNC(=O)Cc2ccccc2)cc1,11

row,Compound,"hERG current change (%, negative = inhibition) at 1uM [%]"
1,COc1ccc(-c2nc(N)ncc2-c2csc(C)n2)c(O)c1,10.4
2,CCOc1ccc(CNC(=O)C(C)n2ccc3cc(S(=O)(=O)N4CCCC4)ccc32)cc1 (stereo not drawn),15.4
3,O=C(CSc1nnc(-c2cnccn2)n1Cc1ccco1)c1ccccc1,-15.5
4,CS(=O)(=O)Nc1ccc(C(=O)NCCSCc2c(F)cccc2Cl)cc1,-11.9
5,Cc1nc2ccc(NC(=O)c3c(-c4ccccc4)noc3C)cc2s1,0.677
6,Cc1ccc(S(=O)(=O)C2(C(=O)N3CCN(c4cc(C)ccc4C)CC3)CC2)cc1,-2.08
7,COc1cccc(NC(=S)Nc2ccc(O)cc2)c1,10.1
8,O=C(NCc1ccccc1)c1cccc(S(=O)(=O)N2CCOCC2)c1,7.92
9,CC(=O)C1=C(c2ccccc2)NC(=O)NC1c1ccccc1OCC#N (stereo not drawn),7.7
10,Cc1cccc(N2CCN(C(=O)CCC(=O)N3CC(C)Oc4ccc(C)cc43)CC2C)c1 (stereo not drawn),3.65
11,CCCOc1ccc(CN(CCO)CCO)cc1[N+](=O)[O-].Cl,0.763
12,COc1ccc(C)cc1S(=O)(=O)Nc1ccccc1,2.08
13,COc1ccc(C(C)=O)cc1COC(=O)c1cccnc1SC,5.55
14,CC(C)Cn1c(=S)[nH]c2ccccc2c1=O,10.7
15,CCC(C)N1C(=O)CCC1C(=O)N1CCN(c2ccc(F)cc2)CC1 (stereo not drawn),-11.1
16,CC(=O)/C(=N/Nc1cccc(C)c1)N1CCOCC1.Cl,5.2
17,CCOC(=O)CSc1nc2cc(OCC)ccc2cc1C#N,10.7
18,CCCC(=O)c1ccc(N2CCN(C(=O)c3ccccc3)CC2)c(F)c1,-23.1
19,Cc1ccc(C)c(NC(=S)NC(NC(=O)/C=C/c2ccccc2)C(Cl)(Cl)Cl)c1 (stereo not drawn),7.55
20,Cc1ccc(-c2csc(NC(=O)C3CC=CCC3C(=O)O)c2C(=O)OC(C)C)cc1 (stereo not drawn),4.06
21,COc1ccc(S(=O)(=O)N2CCN(CC(=O)N3CCc4ccccc4C3)CC2)cc1OC,13.2
22,Cc1ccccc1N1CC(C(=O)Nc2nnc(SCc3cccnc3)s2)CC1=O (stereo not drawn),-6.39

row,Compound,"hERG current change (%, negative = inhibition) at 1uM [%]"
1,COc1ccccc1CC(=O)Nc1cc(Cl)ccc1O,1.15
2,COC(=O)C1=CN(CCCN2CCCC2=O)C=C(C(=O)OC)C1c1ccccc1C(F)(F)F,-10.1
3,CN(C(=O)Cc1csc(-c2ccccc2)n1)c1c(N)n(Cc2ccccc2)c(=O)[nH]c1=O,9.36
4,Cc1ccc(OCc2ccc(C(=O)Nc3nc4ccccc4n3C)o2)c([N+](=O)[O-])c1,19.9
5,CCN(CC(=O)Nc1ccc(OC)cc1)C(=O)c1cc(-c2cccs2)nn1-c1ccccc1,8.42
6,CN(C)C(=O)Oc1ccc(-c2cn3cc(Cl)ccc3n2)cc1,11.4
7,O=C(c1ccccc1Cl)N1CCC(n2cccc2)CC1,7.5
8,COC(C(=O)Nc1ccccc1F)c1ccccc1 (stereo not drawn),10.5
9,COCCNC(=O)C(=O)N/N=C(\C)CC(=O)Nc1ccc2c(c1)OCO2,17.6
10,CC1(C)NC(=O)N(CC(=O)Nc2nc(-c3ccc(F)cc3)cs2)C1=O,0.98
11,COc1cccc2c1OC1(C)CC2N(C(=O)c2ccco2)C(=S)N1c1ccc(F)cc1 (stereo not drawn),10.6
12,O=C(NNC(=S)NC1CCCCC1)c1ccccc1O,7.32
13,CCOc1ccc(CN2CCNC(=O)C2CC(=O)NCC2CCOCC2)cc1 (stereo not drawn),7.4
14,O=C(O)c1cccc(Cn2c(Cl)c(/C=N/NC(=O)c3ccccc3)sc2=O)c1,17.5
15,O=C1NC(=Nc2cccnc2)S/C1=C\c1cccc(F)c1,4.36
16,Cc1ccc(/C=N/OC(=O)c2c(C)noc2-c2snnc2C)cc1,12.3
17,CCOCCn1c(SC)nc2c1c(=O)[nH]c(=O)n2C,12.8
18,CSc1nnc(N2C(=O)C(O)=C(C(=O)c3ccco3)C2c2ccc(F)cc2)s1 (stereo not drawn),10
19,CCN(c1ccccc1)S(=O)(=O)c1cccc(C(=O)NCc2ccccc2CN2CCOCC2)c1,-2.79
20,COc1ccc(COC(=O)C2=C(C)NC(=O)NC2c2cccc(Br)c2)cc1 (stereo not drawn),8.58
21,O=C(Cn1c(NCCO)nc2ccccc21)NCC(F)(F)F,14.3
22,CN(C)S(=O)(=O)NCCNC(=O)c1cc(OCC(F)(F)F)ccc1OCC(F)(F)F,25.3

row,Compound,"hERG current change (%, negative = inhibition) at 1uM [%]"
1,CCOc1ccccc1NC(=S)NCc1ccccc1,10.4
2,Cc1ccc(C)c(SCC(=O)Nc2cccc(S(=O)(=O)NC3=NCCCCC3)c2)c1,7.55
3,CCOC(=O)CSc1ccc2ccccc2n1,-0.122
4,O=C(NCc1ccccc1)c1ccc(CS(=O)(=O)Cc2ccccc2F)o1,-3.56
5,O=C(CCN1C(=O)/C(=C/C=C/c2ccccc2)SC1=S)Nc1ccccn1,1.91
6,N#C/C(=C(/O)CSc1ncn[nH]1)c1nc2ccccc2[nH]1,9.03
7,C/C(CCc1ccccc1)=N/NC(=O)C(=O)NC(C)c1ccccc1 (stereo not drawn),15.7
8,O=C1NC2(CCCCC2)C(=O)N1c1ccc(Cl)cc1,18.9
9,COC(=O)C1=C(c2ccc(OC(F)(F)F)cc2)C[C@@H]2CC[C@H]1N2C(=O)NC1Cc2ccccc2C1,4.27
10,COc1cc(Br)cc(Br)c1OCC(=O)N/N=C/c1c(C)n(C)n(-c2ccccc2)c1=O,3.48
11,CCOC(=O)Cn1c(=N)n(CCOc2ccc(Br)cc2)c2ccccc21.Cl,-20.9
12,COc1cc(C(=O)Nc2ncccc2C)ccc1OCC(=O)N1CCOCC1,12.8
13,Cc1ccc(S(=O)(=O)NCC(=O)NCC2COc3ccccc3O2)cc1C (stereo not drawn),6.57
14,Cc1ccc(-c2nc(CS(=O)(=O)CC(=O)N3CCc4ccccc4C3)c(C)o2)cc1,1.96
15,O=C1OC(c2ccc(F)cc2)=N/C1=C\C=C/c1ccccc1,12.2
16,C/C(=N\NC(=S)Nc1cc(S(=O)(=O)N2CCOCC2)ccc1Cl)c1ccccc1F,4.64
17,CCCCn1c(N)c(N(Cc2ccccc2OC)C(=O)C(C)Oc2ccc(Cl)cc2)c(=O)[nH]c1=O (stereo not drawn),19.3
18,Br.CC(C)(C)c1ccc(C2=CSC3=NCCN23)cc1,-22.4
19,CC(=O)c1c(C)[nH]c(C(=O)OCC(=O)c2c[nH]c3ccccc23)c1C,11.4
20,COC(=O)c1cc2c(ccn2-c2ccc(F)cc2)n1CC(=O)OC(C)C,15.7
21,O=c1c2c3c(sc2n(CCN2CCOCC2)c(=O)n1Cc1ccco1)CCCCC3,-9.12
